The values below come from paper PMC5268738, “A sequential multi-target Mps1 phosphorylation cascade promotes spindle checkpoint signaling” (eLife, 2017).

The subject of assay [1] is APC/C^Cdc20. Nature of the assay: APC/C^Cdc20 inhibition by MCC components (securin ubiquitination assay). As to conditions: Mad1^E–Mad2 treated with Mps1, no Bub1; Mad2^Mono, BubR1^N. Format: biochemical, Xenopus APC/C, human Cdc20.
The subject of assay [2] is N-terminal fragment of Cdc20 (residues 1–170, Cdc20^N). Briefly: in vitro pull-down of Mps1-treated Mad1^E–Mad2 by Cdc20^N beads. Format: binding, human. The conditions noted are these: Ni^2+ beads with Cdc20^N170-His6; Mad1 pre-treated with kinase domain of Mps1; anti-Mad1 blot. The method, then:
Expression of Cdc20-His6 proteins containing the N-terminal regions of Cdc20 was induced by 1 mM isopropyl β-D-1-thiogalactopyranoside (IPTG) at 37 °C for 6 h. Harvested pellets were lysed in denaturing lysis buffer (100 mM NaH2PO4, 10 mM Tris-HCl, pH 8.0, 8 M Urea), and incubated overnight by gentle rocking at room temperature. After centrifugation, the supernatants were incubated with pre-equilibrated Ni^2+-NTA beads (Qiagen). Protein-bound beads were washed with 15 volumes of denaturing wash buffer (100 mM NaH2PO4, 10 mM Tris-HCl, pH 6.3, 8 M Urea). The proteins were then eluted with denaturing elution buffer (100 mM NaH2PO4, 10 mM Tris-HCl, pH 4.5, 8 M Urea). The eluted proteins were then dialyzed into the storage buffer (50 mM Tris, pH 8.0, 200 mM NaCl, 5% glycerol, 1 mM β-mercaptoethanol). […]
For kinase assays, 1 μM Cdc20^ΔN60, 40 μM Mad1^E–Mad2, or 400 nM Bub1^ΔK–Bub3 was incubated with 40 nM Bub1, 500 nM Mps1, and/or 50 nM Cdk1–Cyclin B1 at room temperature for 30 min in the kinase buffer (25 mM Tris-HCl, pH 7.7, 100 mM NaCl, 10 mM MgCl2, 5 mM NaF, 20 mM β-glycerophosphate, 0.1 mM Na3VO4 and 1 mM DTT) supplemented with 1 mM ATP. The reaction mixtures were stopped with the appropriate kinase inhibitors for further protein-binding assays, or quenched with the SDS loading buffer and analyzed by Coomassie blue staining or Western blotting. […]

B1: Mad1^E–Mad2 WT: E fragment of Mad1 containing MIM and CTD, in complex with Mad2 (protein)
chain 1: SSAEQSFLFSREEADTLRLKVEELEGERSRLEEEKRMLEAQLERRALQGDYDQSRTKVLHMSLNPTSVARQRLREDHSQLQAECERLRGLLRAMERGGTVPADLEAAAASLPSSKEVAELKKQVESAELKNQRLKEVFQTKIQEFRKACYTLTGYQIDITTENQYRLTSLYAEHPGDCLIFKATSPSGSKMQLLETEFSHTVGELIEVHLRRQDSIPAFLSSLTLELFSRQTVA
chain 2: [about 200 residues left out here]
modifications: left off: GST, N-terminal, kept
B1: the “Mps1-dependent, Bub1-independent MCC formation and APC/C inhibition (in words)” value in assay [1] is “supported Mps1-dependent MCC formation and APC/C inhibition”. Besides, the “binding of Mps1-treated Mad1^E–Mad2 to Cdc20^N (in words)” value in assay [2] is reported as “efficiently pulled down”.
